PubChem BioAssay AID1347165 (National Center for Advancing Translational Sciences (NCATS), 2019)
The campaign covered roughly 220,000 compounds. About 5,700 (2.6%) were called active. The shares of active, inactive and inconclusive entries below differ from those in the screen. The call rests on the fitted dose curve; in most records, active means well fitted inhibition curve with a large enough effect; inconclusive means small, poorly fitted or top-dose-only effect; inactive means no such curve, though single readings can be large or run the other way. Potencies beside an inconclusive call are fits to weak or partial responses and may not hold up.
Further: nearly all actives have a fitted effect of over 70% in size.
Potency means the concentration at half of the fitted maximal effect; tags describe the fitted curve by direction and shape.
Wherever activity change, negative = inhibition is given: 0% is about no effect.

The compounds below were run against Lysine-specific demethylase 5B (Homo sapiens) (UniProt Q9UGL1) (assay: Primary screen for KDM5B Histone Demethylases FDH-coupled qHTS). Details: FDH-coupled NADH fluorescence (FDH is formaldehyde dehydrogenase); activity change, negative = inhibition: at 57.7 µM (top of the series) unless noted.
Sequence of UniProt Q9UGL1 (Q9UGL1 whole entry, looked up): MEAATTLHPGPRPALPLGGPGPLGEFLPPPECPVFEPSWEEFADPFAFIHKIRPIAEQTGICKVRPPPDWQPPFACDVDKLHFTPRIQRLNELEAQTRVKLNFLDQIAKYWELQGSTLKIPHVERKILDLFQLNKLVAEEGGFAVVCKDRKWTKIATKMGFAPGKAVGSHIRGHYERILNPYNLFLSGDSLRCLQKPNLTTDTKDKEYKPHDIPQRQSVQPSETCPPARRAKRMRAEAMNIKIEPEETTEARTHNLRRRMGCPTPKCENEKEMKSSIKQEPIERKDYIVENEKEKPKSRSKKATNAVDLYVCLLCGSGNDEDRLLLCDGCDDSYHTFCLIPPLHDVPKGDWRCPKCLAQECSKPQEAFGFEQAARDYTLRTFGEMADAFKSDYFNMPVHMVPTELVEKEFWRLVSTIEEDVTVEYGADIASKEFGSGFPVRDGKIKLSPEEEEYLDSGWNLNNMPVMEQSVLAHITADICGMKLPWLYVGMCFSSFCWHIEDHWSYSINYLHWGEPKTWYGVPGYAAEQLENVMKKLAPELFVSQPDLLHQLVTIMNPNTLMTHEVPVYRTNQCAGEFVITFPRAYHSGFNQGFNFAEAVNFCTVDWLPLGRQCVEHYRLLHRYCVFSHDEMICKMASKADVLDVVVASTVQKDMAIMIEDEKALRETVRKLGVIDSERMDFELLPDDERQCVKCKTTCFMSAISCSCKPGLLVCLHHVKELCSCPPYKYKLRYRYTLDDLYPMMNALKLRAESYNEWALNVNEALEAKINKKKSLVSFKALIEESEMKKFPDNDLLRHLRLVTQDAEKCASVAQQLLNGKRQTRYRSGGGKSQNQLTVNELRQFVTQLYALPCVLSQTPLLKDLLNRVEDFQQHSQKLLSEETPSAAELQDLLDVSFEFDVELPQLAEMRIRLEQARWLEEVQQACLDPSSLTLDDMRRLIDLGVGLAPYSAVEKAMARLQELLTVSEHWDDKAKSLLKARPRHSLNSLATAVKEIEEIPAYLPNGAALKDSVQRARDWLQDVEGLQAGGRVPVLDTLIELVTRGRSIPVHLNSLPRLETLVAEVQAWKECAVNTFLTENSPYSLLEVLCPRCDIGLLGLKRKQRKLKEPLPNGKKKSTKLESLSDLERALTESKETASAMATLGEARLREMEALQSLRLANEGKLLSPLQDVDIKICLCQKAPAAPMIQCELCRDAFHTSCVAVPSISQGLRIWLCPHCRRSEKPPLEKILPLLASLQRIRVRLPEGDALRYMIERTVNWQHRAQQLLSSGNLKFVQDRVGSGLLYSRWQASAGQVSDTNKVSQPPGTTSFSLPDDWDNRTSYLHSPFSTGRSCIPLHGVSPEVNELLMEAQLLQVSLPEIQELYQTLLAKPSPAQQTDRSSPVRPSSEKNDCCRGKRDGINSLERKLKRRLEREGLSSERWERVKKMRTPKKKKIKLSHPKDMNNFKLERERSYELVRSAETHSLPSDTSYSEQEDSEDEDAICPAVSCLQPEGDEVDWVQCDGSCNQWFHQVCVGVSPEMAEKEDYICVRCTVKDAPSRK
Summary of the method: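 KDM5BΔAP (200 nM final) in 50 mM HEPES pH 7.5, 0.01% Tween-20 was preincubated 10 min at RT with compound over a concentration range. Substrate mix (H3K4me3 12.5 µM, α-KG 25 µM, Fe²⁺, ascorbate, NAD⁺, FDH) was added, and NADH fluorescence change over 30 min gave dose-response curves.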
For `CCOc1ccc(Br)cc1C1NC(=O)c2c(sc3c2CCN(C)C3)N1` (configuration not stated), the Potency was inconclusive: 25.1 µM [inhibitor, partial curve, poor fit]. With `CC(=O)c1cc(-c2ccc(F)cc2)n(CCC(=O)Nc2nc3ccc(C)cc3s2)c1C` the Potency was inconclusive: 35.5 µM [inhibitor, single point]. In the case of `COc1ccc(Cl)cc1-c1ccc2c(c1)C(=O)N1CCN(C(=O)CSC)C[C@@H]1C(=O)N2`, the Potency is reported as inconclusive: 35.5 µM [inhibitor, single point]. With `CN1CCc2c([nH]c3ccccc23)C12CCN(C(=O)C1CC1)CC2` the Potency was inconclusive: 35.5 µM [inhibitor, single point]. With `CCc1nccc(-c2c(-c3ccccc3)ncn2CC(O)c2ccccc2)n1` (configuration not stated) the Potency was inconclusive: 31.6 µM [inhibitor, single point]. `CCN(c1ccccc1)S(=O)(=O)c1ccc(NC(=O)c2nc(SC(C)C)ncc2Cl)cc1` was tested, and the Potency was inconclusive: 14.1 µM [inhibitor, partial curve, poor fit]. `CONC(=O)Cn1c2ccccc2c(=O)c2ccccc21` was tested, and the Potency was inconclusive: 25.1 µM [inhibitor, partial curve, poor fit]. For `Cc1ccc(SCc2nc(-c3ccc(C(=O)NCC(C)c4ccccc4)cc3)oc2C)cc1` (configuration not stated), the Potency was inconclusive: 31.6 µM [inhibitor, partial curve, poor fit]. With `O=C(NCCCc1ccccc1)c1cc(C2CC2)nc2ccccc12` the Potency was “inactive”. For `Cc1cccc(CNC(=O)CN2C(=O)CCn3nc(-c4cn(C)c5ccccc45)cc32)c1`, the Potency was inconclusive: 2.51 µM [inhibitor, partial curve, poor fit]. With `COc1ccc2oc(=O)cc(CN3CCN(C(=O)c4cccc(C)c4)CC3)c2c1` the Potency was “inactive”. `Nc1c(-c2nc(-c3ccc4c(c3)OCO4)cs2)c2ccccn2c1C(=O)c1ccc(Cl)cc1` was tested, and the Potency was “inactive”. For `CCOc1ccc(NC(=O)Cc2c[nH]c3ccccc23)cc1`, the Potency was “inactive”. `CCOC(=O)c1cc(S(=O)(=O)N(C)CC(=O)N2CCN(c3ccccc3F)CC2)cn1C` was tested, and the Potency was “inactive”. With `COc1ccc(OC)c(/C=C(\C#N)c2nc(-c3ccc(F)cc3)cs2)c1` the Potency was inconclusive: 25.1 µM [inhibitor, single point]. In the case of `COc1ccc(-c2nc(C#N)c(NCCN3CCOCC3)o2)cc1`, the Potency is reported as inconclusive: 22.4 µM [inhibitor, partial curve, poor fit]. With `CN(C)c1ccc(N=C=S)cc1` the Potency was inconclusive: 10 µM [inhibitor, partial curve, poor fit]. For `NC(=O)c1cc(Cc2ccccc2)sc1NC(=O)c1ccccc1`, the Potency was inconclusive: 8.91 µM [inhibitor, full curve, poor fit]. `COc1cc(/C=C/C(=O)O)c(Br)cc1OCCc1ccccc1` was tested, and the Potency was inconclusive: 28.2 µM [inhibitor, single point]. For `OC1(c2ccc(Cl)c(Cl)c2)C[n+]2ccccc2N1Cc1ccccc1` (configuration not stated), the Potency was inconclusive: 35.5 µM [inhibitor, partial curve, poor fit]. For `CCCCn1c(=O)[nH]c(=O)c2c1nc(-c1ccncc1)n2CC(C)C`, the Potency was inconclusive: 15.8 µM [inhibitor, partial curve, poor fit]. For `Cc1ccc(CNC(=O)Cc2c(C)c3cc(Cl)c(O)cc3oc2=O)cc1`, the Potency was inconclusive: 2.24 µM [inhibitor, full curve, poor fit]. In the case of `Cc1ccc(-c2csc3ncnc(Nc4ccc(C(=O)O)cc4)c23)cc1`, the Potency is reported as “inactive”. With `Cc1ccc(-c2cc3c(=O)n(CCNC(=O)c4cc(Cl)ccc4F)ccn3n2)c(C)c1` the Potency was inconclusive: 35.5 µM [inhibitor, single point]. For `O=C1N(C2CCOCC2)CCCC12CCN(c1ccc(Cl)cn1)C2` (configuration not stated), the Potency was active: 28.2 µM. For `COc1ccccc1-c1nc2cc(NC(=O)c3ccccc3Cl)ccc2o1`, the Potency was inconclusive: 35.5 µM [inhibitor, partial curve, poor fit]. In the case of `Cc1ccc(NC(=O)Cn2ccn3nc4c(c3c2=O)CCCCC4)cc1F`, the Potency is reported as inconclusive: 28.2 µM [inhibitor, single point]. For `COc1ccc(C(=O)N[C@H]2C[C@H]3C(=O)NC[C@@H](CCC(=O)NCc4ccccc4)N3C2)cc1`, the Potency was inconclusive: 31.6 µM [inhibitor, single point]. For `CN1CCCCCCN(Cc2ccccc2)[C@H]2CCC[C@H]2C1=O`, the Potency was inconclusive: 39.8 µM [inhibitor, single point]. In the case of `Cc1ccc(C2Cn3nnc(C(=O)N4CCN(C(=O)c5cccc(F)c5)CC4)c3CO2)cc1` (configuration not stated), the Potency is reported as “inactive”. With `Cc1ccc(C)c([S+](=O)([O-])c2nnn3c2nc(NC2CCCC2)c2ccccc23)c1` the Potency was inconclusive: 89.1 µM [inhibitor, partial curve, poor fit]. `N#Cc1nc(-c2ccco2)oc1N1CCN(CC(=O)Nc2cccc(Br)c2)CC1` was tested, and the Potency was inconclusive: 25.1 µM [inhibitor, partial curve, poor fit]. `Cc1ccc(/C=N/Nc2ccc(S(=O)(=O)Nc3ccccc3C(=O)O)cc2[N+](=O)[O-])o1` was tested, and the Potency was “inactive”. In the case of `Cc1cc(C)cc(Nc2nc(-c3cccnc3)nc3ccccc23)c1`, the Potency is reported as “inactive”. In the case of `Cc1cn2nc(C(=O)N3CCC(C(N)=O)CC3)cc2c(N2CCCC2)n1`, the Potency is reported as inconclusive: 31.6 µM [inhibitor, partial curve, poor fit]. In the case of `Cc1cccc2nc(-c3ccc(N4CCOCC4)cc3)c(Nc3ccc4c(c3)OCCO4)n12`, the Potency is reported as inconclusive: 1.78 µM [inhibitor, partial curve, poor fit]. In the case of `Cc1cn2nc(C(=O)NC3CCCC3)cc2c(N2CCSCC2)n1`, the Potency is reported as active: 28.2 µM. In the case of `Cc1cn2nc(C(=O)N3CCCC3)cc2c(=O)[nH]1`, the Potency is reported as inconclusive: 35.5 µM [inhibitor, single point]. For `COc1cc(OC)cc(C(=O)N2CCCC(c3noc(COc4ccccc4F)n3)C2)c1` (configuration not stated), the Potency was “inactive”. With `CNC(=O)C1(N2CCC[C@H]2C(=O)NCCN2CCOCC2)CCCCC1` the Potency was inconclusive: 31.6 µM [inhibitor, partial curve, poor fit]. For `Nc1nnnn1NCc1cc(Cl)ccc1OCc1ccc(Cl)cc1Cl`, the Potency was inconclusive: 39.8 µM [inhibitor, single point]. In the case of `O=C(Nc1ccc(Cl)cc1)c1cc(S(=O)(=O)NC2CCCCCC2)ccc1F`, the Potency is reported as “inactive”. `Cc1ccccc1-n1cnnc1SCCC(=O)Nc1cccc(S(=O)(=O)N2CCCC2)c1` was tested, and the Potency was “inactive”. With `Cc1cccc(-n2nc(-c3c(C)nc4scc(CC(=O)NC(C)C)n4c3=O)cc2C)c1C` the Potency was active: 25.1 µM. In the case of `CCN1CCN(C(=O)c2cc3cn(C4CC4)cc3s2)CC1`, the Potency is reported as inconclusive: 10 µM [inhibitor, partial curve]. In the case of `Cc1c(C(=O)N(C)C)sc2c1c(=O)n(-c1ccccc1C(F)(F)F)c(=O)n2Cc1cccc(F)c1`, the Potency is reported as “inactive”. With `COc1ccc(C(=O)Nc2nc3c(s2)Cc2cc(OC)ccc2-3)cc1` the Potency was inconclusive: 8.91 µM [inhibitor, partial curve, poor fit]. `O=C(O)C1(c2ccc(Cl)cc2)CCCC1` was tested, and the Potency was “inactive”. In the case of `COc1cccc(Nc2ncc3c(n2)C(C)(C(=O)NCCCn2ccnc2)CC3)c1` (configuration not stated), the Potency is reported as “inactive”. For `CCOC(=O)C1=C(COC(=O)c2oc3c(F)cccc3c2C)NC(=O)NC1C` (configuration not stated), the Potency was “inactive”. `O=C(CCCc1ccccc1)N1C[C@@H](CO)[C@H](c2nc(C3CC3)no2)C1` was tested, and the Potency was “inactive”. `CC(NC(=O)Cc1c(Cl)cccc1Cl)c1ccccn1` (configuration not stated) was tested, and the Potency was “inactive”. `CC(Nc1ccc2oc(C(C)(C)C)nc2c1)c1nc(C(C)(C)C)no1` (configuration not stated) was tested, and the Potency was inconclusive: 39.8 µM [inhibitor, single point]. `COc1ccc(-n2c3c(cc(-c4nc(-c5ccc(Cl)cc5)cs4)c2=O)C(=O)CC(C)(C)C3)cc1Cl` was tested, and the Potency was inconclusive: 3.55 µM [inhibitor, full curve, poor fit]. `COc1ccccc1-c1cc(C(=O)N/N=C/c2ccoc2)c2ccccc2n1` was tested, and the Potency was inconclusive: 39.8 µM [inhibitor, single point]. In the case of `COC(=O)[C@@H]1Cc2ncn(C(C)C)c2CN1C(=O)c1ccc(C(F)(F)F)cc1`, the Potency is reported as inconclusive: 31.6 µM [inhibitor, partial curve]. `COc1ccc(CCNc2nc3cc(OC)c(OC)cc3c3nc(-c4cccnc4)nn23)cc1OC` was tested, and the activity change, negative = inhibition was inconclusive: -30.5% [inhibitor]. `O=S(=O)(c1ccccc1)c1nc(-c2ccccc2F)oc1N1CCOCC1` was tested, and the Potency was inconclusive: 35.5 µM [inhibitor, single point]. With `COc1ccc(-c2cn3c(n2)sc2cc(C(=O)Nc4ccc(C)cc4C)ccc23)cc1` the Potency was inconclusive: 4.47 µM [inhibitor, partial curve, poor fit]. In the case of `COc1cc2ccccc2cc1C(=O)Nc1ccc2oc(-c3cccc(C)c3)nc2c1`, the Potency is reported as inconclusive: 31.6 µM [inhibitor, single point]. `Cc1ccccc1-c1cnc2[nH]cc(CC(=O)NCCN3CCOCC3)c2c1` was tested, and the Potency was inconclusive: 31.6 µM [inhibitor, single point]. In the case of `CC1(C)CNC(=O)c2nc(CCSCc3ccco3)[nH]c2C1`, the Potency is reported as “inactive”. `CCOC(=O)N1CCN(CC(=O)Nc2oc3ccccc3c(=O)c2-c2ccccc2)CC1` was tested, and the Potency was “inactive”. With `Cc1cccc(OCC2(CNCc3nccs3)C[C@@H](O)[C@@H](O)C2)n1` (some centres not stated) the Potency was inconclusive: 39.8 µM [inhibitor, single point]. With `Cc1ccc(CN2CCc3oc(C)c(C(=O)N4CCSCC4)c3C2)cc1` the Potency was inconclusive: 20 µM [inhibitor, single point]. For `Cc1ccc(C(=O)NCCc2ccccc2)cn1`, the Potency was “inactive”. With `Cc1ccc(CNC(=O)NC(=O)C(F)(F)F)cc1` the Potency was “inactive”.
